The test system of this assay is Plasmodium falciparum. The experiment in a line: Primary screen in NF54 nanoGlo assay, in single point, at 2uM, 72h; a lower Z score goes with more inhibition. The assay is classed as functional, Erythrocyte. Particulars: timepoint 72 hour.

One may read the % Inhibition as the drop in the measured response relative to a control, in per cent.

“And” between values parts separate entries of the source, which are not always exact repeats. Equal values may be shown once. About 540 (0.36%) of roughly 150,000 compounds showed an effect of 50% or more. This is one part of the list.

As for `CCN1CCCn2nc([C@H]3CCCN(Cc4cc(F)cc(F)c4)C3)cc2C1=O`, the “% Inhibition” value is -12% and the Z score is recorded as 2.16.
For `CCN(Cc1ccccc1)C(=O)[C@@H](N)CC(C)C`, in that order: -16% and 2.02.
For `Cc1nn(S(=O)(=O)c2cccc3nonc23)c(C)c1Br`, in that order: -1% and 0.11.
For `CC(=O)c1ccc(OCC(=O)N2CCOC3CCCCC32)cc1F` (configuration not stated), in that order: -15% and 3.01.
Consider `Cn1nc(C2CC2)n(C2CCN(C(=O)Cc3ccncc3)CC2)c1=O`, for which the “% Inhibition” value is reported as -10% and the Z score was 1.39.
The like results for `COc1ccccc1NC(=O)NC(N)=O` were, in that order, -5% and 0.69.
The like results for `CCOC(=O)N1CCN(C(=O)c2cc(CC)[nH]c(=O)c2)CC1` were, in that order, -15% and 2.84.
For `CC(C)c1cc(C(=O)N2C[C@@H]3CC[C@H]2CN(C2CCOCC2)C3)n(C)n1`, in that order: -2% and 0.16.
As to `O=C(O)[C@@H]1CCCN1CC(=O)N1CCC(Cc2ccccc2)CC1`, the “% Inhibition” value is recorded as 0% and the Z score is listed as -0.02.
For `COc1ccc(-c2cc(OCC(N)=O)c3cc(NC(=O)c4ccc(OC)cc4OC)ccc3n2)cc1`, in that order: 9% and -1.49.
For `O=C(O)CCCOc1nc(C2CC2)cc(C(F)(F)F)n1`, in that order: -7% and 0.92.
Regarding `CCc1nc(-c2ccccc2)nc(N2CCN(S(=O)(=O)CC)CC2)c1Cc1ccc(OC)cc1`, the “% Inhibition” value is -7% and the Z score turned out to be 1.05.
For `Cc1n[nH]cc1CNc1ccc(CC(=O)N2CCc3ccccc32)cc1`, in that order: -15% and 2.09.
For `COc1ccc(-c2cc3c4c(C)n(-c5ccc(C)cc5)c(C)c4c(C)nn3c2)cc1`, in that order: -9% and 1.47.
The like results for `O=C1NCCN1CCNc1cc(-c2ccccc2F)nc2ccnn12` were, in that order, -1% and 0.12.
In the case of `O=C(CCS(=O)(=O)c1ccc(Cl)cc1)Nc1nnc(-c2cccnc2)o1`, the “% Inhibition” value is listed as -8% and the Z score came out at 1.29.
As to `CN(C(=O)NC1CCCC1)c1nc2c(s1)CN(Cc1ccccc1)C2=O`, the “% Inhibition” value is 36% and the Z score is -4.11.
The like results for `Cc1ccc(NC(=O)c2ocnc2C(F)(F)F)c(C)n1` were, in that order, -4% and 0.78.
Turning to `Cc1cnc(CNC(=O)[C@H]2CCCNCC2)cn1`, the “% Inhibition” value was determined as 3% and the Z score was -0.62.
Take `Cc1ccc(C)c(N2CCN(C(=O)c3cc4c(-c5cccs5)nn(-c5ccccc5)c4n3C)CC2)c1`: the “% Inhibition” value is on record as -8% and the Z score is 1.3.
As to `CCOCCO/C(=N/C(=O)c1cccs1)NCc1ccc2c(c1)OCO2`, the “% Inhibition” value amounted to 0% and the Z score is 0.02.
For `O=C(NCCN1CCCCC1)c1ccc2c(c1)OCCO2`, in that order: -6% and 0.8.
In the case of `Cc1c(CN2CCC3(CC2)[C@H](O)C[C@@H]3O)cc(C#N)n1C`, the “% Inhibition” value came out at 3% and the Z score is -0.5.
With `CC(C)Cc1nc(NC(=O)CC[C@@H]2NC(=O)N(Cc3ccccc3Cl)C2=O)n[nH]1`, the “% Inhibition” value is on record as -3% and the Z score is 0.43.
For `C=CCNCc1cccc(OC)c1OCC(=O)NC(C)(C)C`, in that order: 44% and -5.93.
For `COc1cccc(-c2nc3ccc(-c4ccccc4)cn3c2CN2CCN(S(=O)(=O)c3ccccc3OC)CC2)c1`, in that order: -3% and 0.34.
Turning to `CN1CCCN(c2ccc(NC(=O)c3nn(-c4ccccc4)c(=O)c4ccccc34)cc2F)CC1`, the “% Inhibition” value was determined as 82% and the Z score is listed as -6.28.
For `Cc1cc(N2CCC(c3nnc(CN4CCC(O)CC4)n3C)CC2)ncn1`, the “% Inhibition” value was 1% and the Z score was -0.12.
Turning to `CC1(CNC(=O)N2CCC[C@]3(CC=CCC3)C2)COC1`, the “% Inhibition” value was -8% and the Z score stood at 0.89.
For `CCc1nc(Cn2cnc(-c3ccccc3)c2-c2cc(CN(C)C)cs2)no1`, in that order: -8% and 1.45.
As for `CC(C)[C@H](NC(=O)c1ccccn1)c1nc2ccccc2n1C(C)C`, the “% Inhibition” value (2 µM) is -10% and 0%.
In the case of `c1cncc(CNc2cnc3ccccc3c2)c1`, the “% Inhibition” value is recorded as -16% and the Z score is on record as 1.59.
For `COC(=O)c1cc(CNc2ccc3[nH]ncc3c2)c[nH]1`, in that order: -10% and 1.19.
For `Cc1cccc(N2CCN(C(=N)NS(=O)(=O)c3ccc(F)cc3)CC2)c1C`, in that order: -15% and 2.36.
The like results for `Cc1ccccc1OS(=O)(=O)Cc1ccon1` were, in that order, -6% and 0.9.
In the case of `O=C(c1conc1C1CC1)N1C2COCC1C2`, the “% Inhibition” value was -12% and the Z score worked out at 1.08.
The like results for `CCCN1C(=O)c2ccccc2NC12CCCCC2` were, in that order, 2% and -0.29.
The like results for `COc1ccccc1-c1n[nH]cc1CN1CCCN(S(C)(=O)=O)[C@H](c2ccccc2)CC(=O)NCC1` were, in that order, -4% and 0.53.
The like results for `Cc1ccn(C2CCN(C(=O)C(C)(C)c3c[nH]cn3)CC2)n1` were, in that order, -6% and 1.19.
With `COc1ccc(S(=O)(=O)N[C@H]2[C@H](O)[C@H](O)C[C@@H]2c2ccccc2C)cc1`, the “% Inhibition” value was 14% and the Z score is recorded as -1.67.
For `CC1CCC(O)C(C2CCCN2CC(C)CS(C)(=O)=O)C1` (configuration not stated), in that order: -5% and 0.85.
The like results for `Cc1cc(CNC(=O)N2CC(C)(C)C[C@H]2c2ccccc2)on1` were, in that order, -8% and 0.92.
The like results for `O=C(N1CCCN(C2CCC2)CC1)C1(c2ccccc2)CCOCC1` were, in that order, -14% and 2.36.
Turning to `C[C@H](NCc1ncnn1C(C)(C)C)c1cccc(C2CC2)c1`, the “% Inhibition” value is listed as -5% and the Z score is on record as 0.84.
The like results for `Nc1ccc(OCc2ccc(COc3ccc(N)cc3)cc2)cc1` were, in that order, -9% and 1.14.
For `O=C1COCC(=O)N1C1CCN(S(=O)(=O)CCc2ccccc2)CC1`, in that order: 5% and -0.69.
Take `CN1CCN(CC(=O)N2CCCc3ccccc32)CC1`: the “% Inhibition” value is recorded as -3% and the Z score is 0.5.
As for `O=C(COc1ccc2ccccc2c1)N1CCC(C(=O)N2CCCCCC2)CC1`, the “% Inhibition” value is -5% and the Z score amounted to 0.77.
Turning to `O=C(CN1CCc2cncnc2C1)N1CCCc2ccccc21`, the “% Inhibition” value is on record as -5% and the Z score is on record as 0.77.
As for `O=C(Nc1ccc(F)cc1)c1c(O)c2cnn(-c3ccc(F)cc3)c2[nH]c1=O`, the “% Inhibition” value was -14% and the Z score stood at 1.87.
Regarding `COCCc1noc([C@H](C)NC(=O)CN2CCN(C)C2=O)n1`, the “% Inhibition” value was -12% and the Z score is listed as 1.05.
For `CCCn1c(C)nnc1Cn1cnc(C#N)n1`, in that order: 2% and -0.18.
Turning to `CN(C)c1cnc(C(=O)NC(C)(C)c2nnc3n2CCCC3)cn1`, the “% Inhibition” value is given as -10% and the Z score was determined as 1.42.
Consider `O=C(Nc1cccc2[nH]ccc12)N(CCO)C1CC1`, for which the “% Inhibition” value was -11% and the Z score is 1.08.

(Values after ChEMBL document CHEMBL4888484, “Replenishing the malaria drug discovery pipeline: Screening and hit evaluation of the MMV Hit Generation Library 1 (HGL1) against asexual blood stage Plasmodium falciparum ,using a nano luciferase reporter read-out” (2022).)
